Data published in the supplement of paper PMC12632987.
The full ranking holds about 4,500 sequences; the median of “median log2 fold change of GCK-ALFA target abundance (FLAG IP / Myc IP barcode read proportion)” is about 0.078, and the lowest 2% start at about -0.6. The list shows a part of the results.

B1: GBRAP_52_6284 (protein)
chain: SREEVKKTAEEIVELVKEGKLEEAIKLAKEAVEKFSLEEVIELGELLVEKIAELKPEEIDLALEVVEALAEGLEEKFGAEEEADILEARAAAAAYAALQR
B2: GBRAP_83_6988 (protein)
chain: AEKIAVAANGDRLEEAVEIAIDLTKEEGYDVSLEFIVDKSDWPRVLEAVRRLAEAGIETEILVSVEGATPEEAAEMLAELEAIAAEAGSNFRITVEVIEP
B3: GBRAP_150_3919 (protein)
chain: DLETLKTIVDTAIDILEAILDGEFSLLPHALKLAEIALEEAKEIDEELKKLAEEALKLVKEAKKLLEEGGKKEEILKAVKEALEVLKKLLKKIEEKIKEK
B4: GBRAP_128_3384 (protein)
chain: VPEEVKERAEKMAKELVEASLEEVPELVKKIVEEMEKLSDEEREYLVEVLEKAFEEMSLEKLEAILDTLLELRPKLSPKTQEFVNDLIVAVGEKILELEE
B5: GBRAP_78_6649 (protein)
chain: EVEELIDKALEHIDEAAKLAKKLPEEERNELLSELTLASSYLLESEENGFDLELLEEALKELEKAKELVKKLKSEVAPEILKELEEAIKLVKEAIKKVKE
B6: GBRAP_74_6520 (protein)
chain: MEELLKKLEEAAEAGDAEKAVELAREIVEKGDLETIERAARILVAFVDRHLDTLTPEELEAVSDALAELADALMERGGDSETVIAVANAAVRAEKKRLAL
B7: GBRAP_160_4018 (protein)
chain: SAAIEALIKEIEEEIEKTKEDMVGESPEERLTLARGTAGDILMLIFESPEVSDESEEKIAELLDKFLKKLEENKNASLEVWYEILDELLEEIKKILKEDE
B8: GBRAP_160_4125 (protein)
chain: MEEDIKTLKDAAEDLKETLETIETLSPEEAAVLAEVTLLNAALEMDELNGKFKELEDKAVEAADKIRETAKTDPEKTKETAKKELEEAAKAFEEAAKKLE
B9: GBRAP_184_5313 (protein)
chain: EVKEVVIEAETAEEAIEQLNKAAEKAKKEGVKLNVYLFLKNVDVEGFEKIAKKIKELKEEGIIESATVEILDDKTEEEIDKFIELADKAGIKLVLALPDE
B10: GBRAP_125_3043 (protein)
chain: GEEEQIEALRALAKILGLSEEEVEELAELARKYGVKGALIALLLAEGKEELAELFAKLSEEAVAKVLKEFLAYLKAHPNITREEAIEKLEELAKEALAKE
B11: GBRAP_184_5058 (protein)
chain: KIYERVIKAENLEELKEKLDELEEEVKDFKGTLIVLVEVPKFTPEMVETLMARLKEILDKGYASSVTVGLDGEMSEEVRDLAIKLADEAGVNLTLALEEE
B12: GBRAP_11_2736 (protein)
chain: EKEKLEKVAKLAEEAAKAADELLEKGVDDEELREKIRKLLEEIEKLVKELNDKFLQKLVEIAKEEFEKSLADPENAEEHLTLARAALRVLEGQVQLLIDE
B13: GBRAP_160_4106 (protein)
chain: DEKYEEFLKDVEEVFKEVLELYDKISADELVNYYTVEMSAVIMEAKDELNLSDETVDELLEVVDEGAEKLKENYDKSKEEIKKILEETYKKIKEVLEKNK
B14: GBRAP_53_6410 (protein)
chain: MEEEIKKLKEEILKLAEKATEANEEEQKKLAKEIGKKLKELVKAGMSKEELKKLLVEIAKKLKEAGASDKVLVILIKAAVELGLEEAAAEIAELIVEDLE
B15: GBRAP_52_6208 (protein)
chain: MAERARRLAEELLALMRAGDREGARALARRIAREWDDEELRVFFEEFVRLAREAAPEDHDLVFELAELLADELEREGREEVLADDFLNAVAAALYEREQA
B16: GBRAP_117_2568 (protein)
chain: SEELEKLKEEVEKLVEESVELIEKRKAAPEEEKPKLEKELEELVLKRLEELIKKYGLEKTEELLEEALLDLDAETYFTIESAVIEAINKIKEKRKKEEEE
B17: GBRAP_52_6130 (protein)
chain: MKEEAKELVEKLIELEKEGKEEELEKLAREIVETKDDEFLKLIAEELAERAKKATPEEREVIERVGEILAREIEEAGRDEVLADYVESTIAAALYEAEQA
B18: GBRAP_52_5972 (protein)
chain: MREEARAFVERAVELQLAGDEEGLEALAREFAARATDEELEVLAEAVAELVRSADAERAEAALEAALRLEDVLLEEGRDEALADAIVAAAAAAAVARRQA
B19: GBRAP_160_4258 (protein)
chain: DEKREKLIKDVEEDKKEILELVDEESAEEVRTFAVVEMGSHIMEAIDEGVVSDEEEEQMAKIRDELEAELKANENGSKEEIKKIITEHFDKLIELLKKAK

target: GABARAP, O95166; assay: median log2 fold change of GCK-ALFA target abundance (FLAG IP / Myc IP barcode read proportion) (log2 ratio); each designed protein is fused to an ALFA-tag nanobody in HEK293 cells to bring the named protein to FLAG-tagged glucokinase (GCK); Myc marks an untargeted standard; higher = target protein stabilised (more abundant); details: target protein: 3xFLAG-MCP-GCK-ALFA reporter; HEK293 landing pad (RPLP)
Summary of the method: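 The readout is target abundance, the per-binder median log2 ratio of FLAG to Myc barcode read proportions. It came from HEK293 landing-pad cells carrying a recombined ALFA-nanobody-fused binder library, induced with 2 μg mL^−1 doxycycline and transfected with a plasmid for a FLAG-tagged target and a Myc-tagged standard. After 48 h, lysates were immunoprecipitated with anti-FLAG and anti-Myc, and circular RNA barcodes were reverse transcribed, amplified and sequenced. Each barcode needed a proportion of at least 10^−7 in both replicates and each binder at least 3 barcodes per replicate, a pseudocount of 10^−6 was added, and the replicates were pooled.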

GABARAP, O95166, sequence (O95166 whole entry, the tested form may be a part): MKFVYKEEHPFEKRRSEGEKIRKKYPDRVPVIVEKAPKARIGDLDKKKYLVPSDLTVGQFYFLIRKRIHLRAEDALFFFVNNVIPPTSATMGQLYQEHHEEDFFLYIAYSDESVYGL

**Q.** B1 was tested. Which “median log2 fold change” value did it give?
**A.** The value was -0.109.

**Q.** For B2, which “median log2 fold change” value is on record?
**A.** Its value is 0.0132.

**Q.** With B3 as the binder, how does the “median log2 fold change” value read?
**A.** Its value is 0.0646.

**Q.** Which “median log2 fold change” value does the source give for B4 here?
**A.** Its value is 0.201.

**Q.** For B5, which “median log2 fold change” value is on record?
**A.** The value was 0.516.

**Q.** For B6, which “median log2 fold change” value is on record?
**A.** Its value is -0.0238.

**Q.** Which “median log2 fold change” value does the source give for B7 here?
**A.** The value was -0.304.

**Q.** Which “median log2 fold change” value does the source give for B8 here?
**A.** Its value is -0.00553.

**Q.** With B9 as the binder, how does the “median log2 fold change” value read?
**A.** Its value is 0.164.

**Q.** With B10 as the binder, how does the “median log2 fold change” value read?
**A.** The value was -0.0155.

**Q.** For B11, which “median log2 fold change” value is on record?
**A.** The value was 0.139.

**Q.** How did the “median log2 fold change” value turn out when B12 was run?
**A.** Its value is 0.101.

**Q.** How did the “median log2 fold change” value turn out when B13 was run?
**A.** The value was -0.00592.

**Q.** Which “median log2 fold change” value does the source give for B14 here?
**A.** Its value is 0.234.

**Q.** Which “median log2 fold change” value does the source give for B15 here?
**A.** Its value is 0.118.

**Q.** For B16, which “median log2 fold change” value is on record?
**A.** Its value is 0.0895.

**Q.** For B17, which “median log2 fold change” value is on record?
**A.** Its value is 0.127.

**Q.** For B18, which “median log2 fold change” value is on record?
**A.** The value was -0.0742.

**Q.** B19 was tested. Which “median log2 fold change” value did it give?
**A.** Its value is 0.189.
